Experimental data published in paper PMC9911399, “Two distinct binding modes provide the RNA-binding protein RbFox with extraordinary sequence specificity”.
Changes are numbered by the printed parent chain; changes in the protein carry UniProt numbers. The list shows a part of the results.

T1: RBFOX1 RRM RbFoxmut (Fox-RRM*) (Homo sapiens, UniProt Q9NWB1 109-208, R118D;E147R;N151S;E152T)
T1 sequence: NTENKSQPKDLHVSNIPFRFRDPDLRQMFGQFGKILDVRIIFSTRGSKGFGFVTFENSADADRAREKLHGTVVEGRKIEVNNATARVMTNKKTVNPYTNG

B1: AAGACUA (DNA:RNA)
RNA: GGGAGACCGGAAUUCAGAUUGUCCAAGACUAUUAAAUCCCGUCGUAGCCACCA
DNA 1: CAATCTGAATTCCGGTCTCCC
DNA 2: TGGTGGCTACGACGGGATT
B2: CCUCCUG (DNA:RNA)
RNA: B1 RNA with A25C, A26C, G27U, A28C, A31G
DNA 1: CAATCTGAATTCCGGTCTCCC
DNA 2: TGGTGGCTACGACGGGATT
B3: AGUCUUA (DNA:RNA)
RNA: B1 RNA with A26G, G27U, A28C, C29U
DNA 1: CAATCTGAATTCCGGTCTCCC
DNA 2: TGGTGGCTACGACGGGATT
B4: GCUCAAU (DNA:RNA)
RNA: GGGAGACCGGAAUUCAGAUUGUCCGCUCAAUUUAAAUCCCGUCGUAGCCACCA
DNA 1: CAATCTGAATTCCGGTCTCCC
DNA 2: TGGTGGCTACGACGGGATT
B5: CUGGAGC (DNA:RNA)
RNA: B1 RNA with A25C, A26U, A28G, C29A, U30G, A31C
DNA 1: CAATCTGAATTCCGGTCTCCC
DNA 2: TGGTGGCTACGACGGGATT
B6: CGGAAUA (DNA:RNA)
RNA: B1 RNA with A25C, A26G, C29A
DNA 1: CAATCTGAATTCCGGTCTCCC
DNA 2: TGGTGGCTACGACGGGATT
B7: AGCAUCU (DNA:RNA)
RNA: B1 RNA with A26G, G27C, C29U, U30C, A31U
DNA 1: CAATCTGAATTCCGGTCTCCC
DNA 2: TGGTGGCTACGACGGGATT
B8: UGCUCGG (DNA:RNA)
RNA: B1 RNA with A25U, A26G, G27C, A28U, U30G, A31G
DNA 1: CAATCTGAATTCCGGTCTCCC
DNA 2: TGGTGGCTACGACGGGATT
B9: UGUCUGA (DNA:RNA)
RNA: B4 RNA with G25U, C26G, A29U, A30G, U31A
DNA 1: CAATCTGAATTCCGGTCTCCC
DNA 2: TGGTGGCTACGACGGGATT
B10: GUGCGUC (DNA:RNA)
RNA: B1 RNA with A25G, A26U, A28C, C29G, A31C
DNA 1: CAATCTGAATTCCGGTCTCCC
DNA 2: TGGTGGCTACGACGGGATT
B11: CGCGACA (DNA:RNA)
RNA: B1 RNA with A25C, A26G, G27C, A28G, C29A, U30C
DNA 1: CAATCTGAATTCCGGTCTCCC
DNA 2: TGGTGGCTACGACGGGATT
B12: AGUACCA (DNA:RNA)
RNA: B1 RNA with A26G, G27U, U30C
DNA 1: CAATCTGAATTCCGGTCTCCC
DNA 2: TGGTGGCTACGACGGGATT
B13: AAGCUAG (DNA:RNA)
RNA: B1 RNA with A28C, C29U, U30A, A31G
DNA 1: CAATCTGAATTCCGGTCTCCC
DNA 2: TGGTGGCTACGACGGGATT
B14: UUAAGAG (DNA:RNA)
RNA: B1 RNA with A25U, A26U, G27A, C29G, U30A, A31G
DNA 1: CAATCTGAATTCCGGTCTCCC
DNA 2: TGGTGGCTACGACGGGATT
B15: CAGGAUU (DNA:RNA)
RNA: B1 RNA with A25C, A28G, C29A, A31U
DNA 1: CAATCTGAATTCCGGTCTCCC
DNA 2: TGGTGGCTACGACGGGATT
B16: CAAACGG (DNA:RNA)
RNA: B1 RNA with A25C, G27A, U30G, A31G
DNA 1: CAATCTGAATTCCGGTCTCCC
DNA 2: TGGTGGCTACGACGGGATT
B17: GGGAGCU (DNA:RNA)
RNA: B1 RNA with A25G, A26G, C29G, U30C, A31U
DNA 1: CAATCTGAATTCCGGTCTCCC
DNA 2: TGGTGGCTACGACGGGATT
B18: CAUCCAA (DNA:RNA)
RNA: B1 RNA with A25C, G27U, A28C, U30A
DNA 1: CAATCTGAATTCCGGTCTCCC
DNA 2: TGGTGGCTACGACGGGATT
B19: AUAGGAU (DNA:RNA)
RNA: B4 RNA with G25A, C26U, U27A, C28G, A29G
DNA 1: CAATCTGAATTCCGGTCTCCC
DNA 2: TGGTGGCTACGACGGGATT
B20: CGGCGCA (DNA:RNA)
RNA: B1 RNA with A25C, A26G, A28C, C29G, U30C
DNA 1: CAATCTGAATTCCGGTCTCCC
DNA 2: TGGTGGCTACGACGGGATT

Molecular target: T1, RBFOX1 RRM RbFoxmut (Fox-RRM*)
Experiment: EMSA; HiTS-Eq, 1 nM pool, 10 min; buffer printed only for the single-RNA assays: 10 mM Tris pH 7.5, 150 mM NaCl, 3.4 mM EDTA, 0.001% NP-40, 30 C
Conditions: tags: His6 N-terminal (pET28a); label: 5' 32P
Outline: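 Purified wild-type or mutant RbFox RRM at increasing concentrations was equilibrated with 1 nM of 5′-radiolabelled RNA carrying 7 randomized nucleotides for 10 min in 50 µL. Unbound RNA was separated by 8% native PAGE and sequenced. Relative association constants came from read-count changes of each RNA species compared with the control reaction, normalised to the cognate motif.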

Binder	binding signal
B1	0.0896 KA relative to UGCAUGU
B2	0.0786 KA relative to UGCAUGU
B3	0.0951 KA relative to UGCAUGU
B4	0.063 KA relative to UGCAUGU
B5	0.103 KA relative to UGCAUGU
B6	0.153 KA relative to UGCAUGU
B7	0.302 KA relative to UGCAUGU
B8	0.153 KA relative to UGCAUGU
B9	0.164 KA relative to UGCAUGU
B10	0.172 KA relative to UGCAUGU
B11	0.0568 KA relative to UGCAUGU
B12	0.0629 KA relative to UGCAUGU
B13	0.124 KA relative to UGCAUGU
B14	0.0992 KA relative to UGCAUGU
B15	0.0826 KA relative to UGCAUGU
B16	0.0437 KA relative to UGCAUGU
B17	0.0724 KA relative to UGCAUGU
B18	0.103 KA relative to UGCAUGU
B19	0.0745 KA relative to UGCAUGU
B20	0.126 KA relative to UGCAUGU
